{"source": "PubChem BioAssay AID686979", "about": "(National Center for Advancing Translational Sciences (NCATS), 2013)", "note": "Hit rate of the full screen: of about 420,000 compounds, about 50,000 (12%) were called active. The inconclusive results got no clear call from the source; some entries with a clear call stand among them for comparison. The call rests on the fitted dose curve; in most records, active means well fitted inhibition curve with a large enough effect; inconclusive means small, poorly fitted or top-dose-only effect; inactive means flat fitted curve, though single readings scatter. No potency is given beside an inconclusive call; the fits are too rough. On the % scale 0 is the no-effect control and ±100 the full control effect; potency means the concentration at half of the fitted maximal effect; tags describe the fitted curve by direction and shape."}
{"test": "qHTS for Inhibitors of human tyrosyl-DNA phosphodiesterase 1 (TDP1): qHTS in cells in presence of CPT; further: nearly all actives have a fitted effect of over 55% in size", "details": "chicken DT40 Tdp1-/-;hTDP1 cells + 20 nM CPT, ATP luminescence, 48 h; activity change, negative = growth inhibition: at 46.2 µM (top of the series)", "how_it_was_run": "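Chicken DT40 Tdp1-/- cells complemented with human TDP1, 400 cells/well, exposed to compounds plus 20 nM camptothecin for at least 48 h at 37 C; viability read as ATP content by CellTiter-Glo luminescence.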"}
{"smiles": "Cc1ccc(NC(=O)CCC(=O)OC(C(=O)c2ccc(C)c(C)c2)c2ccccc2)c(C)c1", "note": "(centres undefined)", "Potency": "inactive"}
{"smiles": "CC(C)N(Cc1nccn1C)C(=O)c1cc(COc2cccc(C(F)(F)F)c2)on1", "Potency": "active: 16.4 µM"}
{"smiles": "Cc1cc(C(=O)OCC(=O)N2CCN(c3ccccc3)CC2)c2ccccc2n1", "Potency": "inconclusive [inhibitor, single point]"}
{"smiles": "COc1ccccc1C1CCN(Cc2ccc(Cl)cc2Cl)CC1", "activity change, negative = growth inhibition": "inconclusive: -30.8% [inhibitor]"}
{"smiles": "CCNC(=O)c1cc2c(c(-c3cccc(-c4cncnc4)c3)n1)[C@H](CCO)N(C(C)=O)C2", "Potency": "inconclusive [inhibitor, single point]"}
{"smiles": "Cc1cc(N2C(=O)C(O)=C(C(=O)c3cc4ccccc4o3)C2c2ccc(OC(C)C)cc2)no1", "note": "(centres undefined)", "Potency": "inconclusive [inhibitor, single point]"}
{"smiles": "CN1C=CC(=C[N+](=O)[O-])N(C)C1=O", "Potency": "inactive"}
{"smiles": "Cc1cccc(-n2c(O)c(C=Nc3ccc(O)cc3)c3ccccc3c2=O)n1", "Potency": "inconclusive [inhibitor, single point]"}
{"smiles": "Cc1ccc(CN2CCc3nc(SCC(=O)Nc4cccc(C)c4C)[nH]c(=O)c3C2)cc1", "Potency": "inactive"}
{"smiles": "N#Cc1cccc(NC(=O)Cn2cnc(S(=O)(=O)N3CCOCC3)c2)c1", "Potency": "inconclusive [inhibitor, single point]"}
{"smiles": "CCOC(=O)C1(Cc2ccc(Cl)cc2)CCN(C(=O)c2sc(C)nc2C)CC1", "Potency": "active: 11.6 µM"}
{"smiles": "CCN1C(=O)/C(=C2/Sc3ccccc3N2CC)S/C1=N\\c1ncn[nH]1", "Potency": "inconclusive [inhibitor, single point]"}
{"smiles": "CCOC(=O)c1c(NC(=O)CCS(=O)(=O)c2ccccc2)sc2c1CCN(C(C)C)C2", "Potency": "active: 4.11 µM"}
{"smiles": "CCS(=O)(=O)c1nc(S(=O)(=O)c2ccc(C)cc2)c(N2CCC(C)CC2)s1", "Potency": "inconclusive [inhibitor, single point]"}
{"smiles": "Cc1cccc(C)c1NC(=O)Cn1nc(C)c2sc3ccccc3c2c1=O", "Potency": "inconclusive [inhibitor, single point]"}
{"smiles": "O=C(CSc1n[nH]c(-c2ccncc2)n1)c1ccccc1", "Potency": "inconclusive [inhibitor, partial curve]"}
{"smiles": "COc1ccc(-c2cn3c(n2)sc2cc(C(=O)Nc4cc(Cl)ccc4C)ccc23)cc1", "Potency": "active: 6.51 µM"}
{"smiles": "COc1ccccc1CCNC(=O)CSCC(=O)Nc1ccccc1F", "Potency": "inactive"}
{"smiles": "CC1CC1C(=O)OCC(=O)Nc1ccc(Cl)cn1", "note": "(centres undefined)", "Potency": "inactive"}
{"smiles": "CCc1noc(C)c1C(=O)Nc1cc(Cl)ccc1N1CCCC1", "Potency": "inconclusive [inhibitor, single point]"}
{"smiles": "CCOC(=O)c1ccc(NC(=O)Cn2cc(C(=O)c3ccc(Cl)cc3)c(=O)c3ccc(C)nc32)cc1", "Potency": "active: 4.61 µM"}
{"smiles": "O=C(NC(=S)N(Cc1ccccc1)c1ccccn1)C1CC1", "Potency": "inconclusive [inhibitor, single point]"}
{"smiles": "O=C(c1ccc(=O)oc1)N1CCOCC1", "Potency": "inconclusive [inhibitor, partial curve, poor fit]"}
{"smiles": "COc1cc(OC)cc(-c2nc3nc(C)c(CCC(=O)Nc4cc(F)ccc4F)c(C)n3n2)c1", "Potency": "inconclusive [inhibitor, partial curve]"}
{"smiles": "Cc1cccc(NC(=O)c2cc(S(=O)(=O)N3CCC4(CC3)OCCO4)ccc2F)c1", "Potency": "inconclusive [inhibitor, single point]"}
{"smiles": "CN1CCN(c2ccc(C(=O)c3cn(-c4ccc(F)c(Cl)c4)nn3)cc2)CC1", "Potency": "inconclusive [inhibitor, single point]"}
{"smiles": "c1cc2c(cc1-c1[nH]ncc1CN1CC3C[C@@H]4CC1C[C@H](C3)C4)OCO2", "Potency": "inconclusive [inhibitor, single point]"}
{"smiles": "COc1ccc(N2CC(NC(=O)c3ccc(S(=O)(=O)N4CCCCC4)cc3)CC2=O)cc1OC", "note": "(centres undefined)", "Potency": "inactive"}
{"smiles": "O=C(CCNS(=O)(=O)c1ccc2c(c1)CCN2C(=O)C1CC1)Nc1ccc(F)cc1F", "Potency": "active: 8.2 µM"}
{"smiles": "Cc1cccnc1NC(=O)Cn1c(=O)oc2ccccc21", "Potency": "inactive"}
{"smiles": "Cc1cccc(C)c1NC(=O)CN(C)C(=O)C1CCN(c2ncnc3sc(C)c(C)c23)CC1", "Potency": "inconclusive [inhibitor, single point]"}
{"smiles": "Cc1ccc(NC(=S)Nc2ccc(S(=O)(=O)N3CCOCC3)cc2)cc1S(=O)(=O)N1CCOCC1", "Potency": "inconclusive [inhibitor, single point]"}
{"smiles": "COc1cc2cc(C(=O)N3CCN(Cc4ccc5c(c4)OCO5)CC3)c(=O)oc2cc1OC", "Potency": "inactive"}
{"smiles": "CCCCCCn1c(SCC#N)nc2ccccc2c1=O", "Potency": "inconclusive [inhibitor, single point]"}
{"smiles": "COc1ccc(NC(=O)c2cccc3c(-c4cccnc4)coc23)cc1", "Potency": "active: 11.6 µM"}
{"smiles": "Cc1ccc(S(=O)(=O)N2C(=O)CCC2C(N)=O)cc1", "note": "(centres undefined)", "Potency": "inactive"}
{"smiles": "O=C(O)CSc1c(-c2cccs2)[nH]c2ccccc12", "Potency": "inconclusive [inhibitor, single point]"}
{"smiles": "CN(Cc1ccc(C(C)(C)C)cc1)C(=O)C1CCN(C(=O)Nc2ccccc2)CC1", "Potency": "inconclusive [inhibitor, single point]"}
{"smiles": "CN(CCNC(=O)c1c[nH]c2c1ccc1ccccc12)CCNC(=O)c1c[nH]c2c1ccc1ccccc12", "Potency": "active: 23.1 µM"}
{"smiles": "CCOc1cccc(C(=O)Nc2cccc(-c3nnc(-c4ccccc4)o3)c2)c1", "Potency": "active: 14.6 µM"}
{"smiles": "COc1cccc(C(NC(C)=O)c2nc(/C=C/c3ccccc3)cs2)c1", "note": "(centres undefined)", "Potency": "inconclusive [inhibitor, single point]"}
{"smiles": "CC(C)n1c(O)c(N=Nc2ccc(Cl)nn2)c2ccccc21", "Potency": "inconclusive [inhibitor, single point]"}
{"smiles": "CC(C)C[C@H](NC(=O)N1CCn2c1nc1ccccc12)C(=O)NCc1ccco1", "Potency": "inactive"}
{"smiles": "O=C(c1ccc(S(=O)(=O)Nc2ccccc2F)cc1)N1CCN(c2ccccn2)CC1", "Potency": "inconclusive [inhibitor, single point]"}
